Some of the results follow. At the low end of the ranking the order means little.

The target in the assay is T1, GST-Rok (full length) (UniProt O34857).
T1 sequence: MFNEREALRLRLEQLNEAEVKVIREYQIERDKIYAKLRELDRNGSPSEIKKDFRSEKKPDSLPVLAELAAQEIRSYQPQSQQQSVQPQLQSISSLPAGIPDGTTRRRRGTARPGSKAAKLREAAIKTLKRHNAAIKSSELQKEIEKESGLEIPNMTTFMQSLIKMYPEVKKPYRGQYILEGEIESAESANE
The assay can be described thus: protein binding microarray.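 Further: rank score from −0.5 (least bound) to 0.5 (best bound).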 As to conditions: Rok is a gene silencer of Bacillus subtilis; high values mean tight binding; most listed sequences are background and not binding sites; double strand, one strand shown.
Take GGTGTTAA: the binding signal was -0.037 E-score.
On to AACTCTGC, for which the binding signal turned out to be 0.137 E-score.
GCGTGCCA yielded a binding signal of -0.295 E-score.
For AGGACACG the value was -0.0452 E-score.
Sequence GTAAAGAC showed a binding signal of 0.0578 E-score.
CCCTGGAA: the binding signal is -0.226 E-score.
The sequence ATGATGCG displayed a binding signal of 0.0798 E-score.
The value for CCACCATC was -0.165 E-score.
In turn, ATGCCTTC yielded a binding signal of -0.125 E-score.
Turning to TACGAACA, the binding signal amounted to 0.202 E-score.
Consider CGGGCGGA, for which the binding signal was -0.281 E-score.
In turn, GCTAGACC showed a binding signal of -0.174 E-score.
In turn, TAAGACCA yielded a binding signal of -0.0966 E-score.
In the case of CGAGACAG, the binding signal was -0.142 E-score.
The sequence AAGGGAGC had a binding signal of -0.376 E-score.
On to GTCCACGA, for which the binding signal was -0.228 E-score.
AATGGGGG registered a binding signal of -0.364 E-score.
For CCAGATTA, the binding signal is -0.1 E-score.
Regarding CCTCCTTA, the binding signal was -0.0715 E-score.
CGCTTCGC: the binding signal is -0.22 E-score.
For AGCATATA the value was 0.258 E-score.
With CGAACTCA, the binding signal is -0.00103 E-score.
CCGAAGCC returned a binding signal of -0.296 E-score.
In turn, AGGAGACG showed a binding signal of -0.263 E-score.
For the sequence ACGAAGCG, the binding signal is -0.0788 E-score.
For GAACCTAA, the binding signal turned out to be 0.0633 E-score.
GCGTAGCC came in with a binding signal of -0.289 E-score.
Regarding AGGCTACG, the binding signal was -0.263 E-score.
In the case of CATCCACA, the binding signal amounted to 0.0526 E-score.
The sequence CACATCAG had a binding signal of -0.0252 E-score.
In turn, CATCCCGG showed a binding signal of -0.27 E-score.
Consider CAGCCGAA, for which the binding signal is -0.0198 E-score.
GCCTGATA: the binding signal is -0.0265 E-score.
In the case of ATAAACCG, the binding signal amounted to 0.105 E-score.
For the sequence AGGCAAAT, the binding signal was 0.0934 E-score.
Sequence ATAATAAG had a binding signal of 0.305 E-score.
GCAAACCC gave a binding signal of -0.0236 E-score.
AAACCCGA displayed a binding signal of -0.202 E-score.
Sequence CTCTTATA had a binding signal of 0.128 E-score.
In the case of CGGTTCGA, the binding signal was -0.134 E-score.
Sequence CCTGTTTC had a binding signal of -0.0211 E-score.
For the sequence CGTTATGA, the binding signal is -0.0723 E-score.
Sequence CCACAACG had a binding signal of -0.192 E-score.
As to ACGTGCAG, the binding signal is -0.0273 E-score.
For the sequence AGACTATC, the binding signal was 0.0106 E-score.
Sequence ACTAGACA came in with a binding signal of 0.054 E-score.
For GTGCCGGA, the binding signal is -0.299 E-score.
For CGGAGACA, the binding signal is -0.0534 E-score.
With CCTCCGAC, the binding signal is -0.284 E-score.
For TGTGTGAA, the binding signal worked out at 0.0261 E-score.
On to GTTTAGAA, for which the binding signal was found to be 0.169 E-score.
For AAATGTCC the value was 0.0591 E-score; for TAGACTGA, -0.0544 E-score.
Sequence ACCCCGTG came in with a binding signal of -0.281 E-score.
For ACGAATGG the value was -0.0358 E-score; for CTTGCAGC, -0.179 E-score; for AACCCTAG, -0.0821 E-score.
GATGGAAA had a binding signal of -0.128 E-score.
As to ATGGGTGA, the binding signal was -0.0657 E-score.
For the sequence ATAGAGAG, the binding signal was -0.0418 E-score.
As for CTTGCTAA, the binding signal was -0.132 E-score.
For CAGGCTCA the value was -0.237 E-score; for AGATTCAA, 0.0974 E-score.
Regarding AATCGGCT, the binding signal was -0.0365 E-score.
The value for AGCTGTTA was 0.0865 E-score; that for AAACCTAT was 0.0862 E-score.
Sequence CAACGCAC showed a binding signal of -0.172 E-score.
On to AAGTACAG, for which the binding signal was 0.272 E-score.
In turn, CTATATTC yielded a binding signal of 0.353 E-score.
CAGCCCAC: the binding signal is -0.257 E-score.
For the sequence AAAACAAA, the binding signal was -0.04 E-score.
Sequence ACGTCTTC registered a binding signal of -0.015 E-score.
GAAAAATA yielded a binding signal of 0.279 E-score.
With AGGAGTGA, the binding signal was -0.183 E-score.
Regarding AGGATACC, the binding signal is -0.0935 E-score.
ATCGTCAC yielded a binding signal of -0.0049 E-score.
CCAACCCG: the binding signal was -0.117 E-score.
The value for CACTATCC was -0.103 E-score; that for AAATTCGT was 0.226 E-score.
Sequence TCTGACAA yielded a binding signal of -0.0142 E-score.
Regarding GCCTTAGA, the binding signal was -0.0778 E-score.
Take CGGATGCC: the binding signal was -0.207 E-score.
For the sequence AATGGTGA, the binding signal is 0.0186 E-score.
For GGTGCAAA, the binding signal was 0.0938 E-score.
Sequence CAGTTCAA came in with a binding signal of 0.0497 E-score.
For ACCTCGGG the value was -0.0475 E-score; for ACCTCGGC, -0.295 E-score.
For TGGAAACA the value was -0.0824 E-score; for CCAAAAAA, 0.0994 E-score.
ATTTAGTA returned a binding signal of 0.363 E-score.
In turn, AAGACGAG had a binding signal of -0.145 E-score.
Turning to CCCCCTGC, the binding signal was -0.339 E-score.
TGCATGAA: the binding signal worked out at 0.0378 E-score.
For ATGCGCAA, the binding signal was 0.0571 E-score.
On to CGAGAGGA, for which the binding signal was -0.308 E-score.
In turn, GAACATGC returned a binding signal of 0.0287 E-score.
In turn, CGCTCTTA displayed a binding signal of -0.109 E-score.
CAGCTCAA: the binding signal is -0.0538 E-score.
In the case of TAACCCCA, the binding signal was -0.179 E-score.
The value for CGTTGCTA was 0.158 E-score; that for GTATTCTA was 0.25 E-score; that for TCCCGCAA was 0.0872 E-score.
For ATTATCTA, the binding signal turned out to be 0.412 E-score.
In turn, GAAGTTGA showed a binding signal of -0.0345 E-score.
AGTCAGCA displayed a binding signal of -0.0464 E-score.
Take ACCTCAAC: the binding signal was -0.22 E-score.
As for AAACTGCG, the binding signal was -0.00401 E-score.
ATGTGCAC: the binding signal was 0.103 E-score.
The value for GTGCCTAA was -0.233 E-score; that for CCGACGTC was -0.176 E-score.

These data come from publication PMC6212790.
